Measured values taken from PubChem BioAssay AID488969 (Vanderbilt High Throughput Screening Facility, 2010).
The full ranking holds about 110,000 compounds; the median of “z-score” is about -0.1, and the highest 2% start at about 2. The list shows a part of the results. Calls of active or inactive are those of the source.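 The calls were made as follows: active = z-score in the third read window above 3 or below -3; inactive = the rest.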

biological target: Metabotropic glutamate receptor 8 (Rattus norvegicus) (UniProt P70579); experiment: mGluR8 Gi/Go-coupled signaling modulation – cell-based, rat, thallium flux, HTS, primary screen (AID 488969); settings: HEK293 rat mGluR8, GIRK (G protein-gated inwardly rectifying potassium channel) thallium flux, FluoZin2; at 10 µM; stronger effect = higher value; submaximal glutamate (EC20) added with thallium
Sequence of UniProt P70579 (P70579 whole entry, looked up): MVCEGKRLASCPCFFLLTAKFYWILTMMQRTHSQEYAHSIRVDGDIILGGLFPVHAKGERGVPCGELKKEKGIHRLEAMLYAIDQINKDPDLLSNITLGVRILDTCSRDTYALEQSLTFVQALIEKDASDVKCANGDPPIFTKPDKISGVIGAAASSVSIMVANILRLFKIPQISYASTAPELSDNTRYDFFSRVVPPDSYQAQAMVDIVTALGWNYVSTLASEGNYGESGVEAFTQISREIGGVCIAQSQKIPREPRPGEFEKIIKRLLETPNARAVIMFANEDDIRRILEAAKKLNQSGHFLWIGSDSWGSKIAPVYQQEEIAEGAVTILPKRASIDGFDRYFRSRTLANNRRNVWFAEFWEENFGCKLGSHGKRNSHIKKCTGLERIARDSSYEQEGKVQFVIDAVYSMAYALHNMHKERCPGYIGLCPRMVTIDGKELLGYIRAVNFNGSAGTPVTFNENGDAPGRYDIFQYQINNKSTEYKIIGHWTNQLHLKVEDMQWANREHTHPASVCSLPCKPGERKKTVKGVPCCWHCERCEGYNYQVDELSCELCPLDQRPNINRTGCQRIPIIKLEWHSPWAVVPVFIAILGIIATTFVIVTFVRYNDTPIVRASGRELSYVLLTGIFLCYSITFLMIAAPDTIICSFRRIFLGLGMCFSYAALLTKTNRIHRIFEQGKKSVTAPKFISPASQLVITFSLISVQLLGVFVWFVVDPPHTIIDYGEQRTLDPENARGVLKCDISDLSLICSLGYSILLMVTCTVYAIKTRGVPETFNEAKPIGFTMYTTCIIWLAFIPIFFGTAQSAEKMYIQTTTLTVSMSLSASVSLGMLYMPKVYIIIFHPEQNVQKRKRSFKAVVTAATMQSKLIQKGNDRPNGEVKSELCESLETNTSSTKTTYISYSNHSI

Question: How did the z-score turn out when CCN(CCCNC(=O)C1CCN(S(=O)(=O)c2c(C)[nH]c(=O)[nH]c2=O)CC1)c1cccc(C)c1 was run?
Answer: The z-score was -0.377.

Question: How did the z-score turn out when Cn1c(SCC(=O)N(Cc2ccccc2)C(C)(C)C)nc2ccccc21 was run?
Answer: Its z-score is -0.559.

Question: CCOc1ccc(C2N(c3ccc(Cl)cc3)C(=O)C3CCCN32)cc1OC (stereo unspecified) was tested. Which z-score did it give?
Answer: The z-score was 0.00447.

Question: With COc1cc(C(=O)N/N=C(\c2ccccc2)c2ccccn2)cc(OC)c1OC as the molecule, how does the z-score read?
Answer: Its z-score is -0.945.

Question: With COc1ccc2nc(N=Nc3ccc(O)c4ccccc34)sc2c1 as the molecule, how does the z-score read?
Answer: The z-score was active: 5.85.

Question: With O=C(c1ccccc1F)N1CCN=C1SCc1cccnc1 as the molecule, how does the z-score read?
Answer: Its z-score is 0.643.

Question: COc1ccc(NC(=O)c2onc(C)c2Cl)cc1OC was tested. Which z-score did it give?
Answer: The z-score was 0.0673.

Question: Which z-score does the source give for CCOC(=O)COc1ccccc1/C=C\[N+](=O)[O-] here?
Answer: Its z-score is 0.0266.

Question: Which z-score does the source give for COc1ccc(CCNC(=O)c2cc(-c3ccccc3O)n[nH]2)cc1OC here?
Answer: Its z-score is 0.21.

Question: With CCC(C)NC(=O)c1cnn2c1NC(c1cccs1)CC2C(F)(F)F (stereo unspecified) as the molecule, how does the z-score read?
Answer: The z-score was -0.275.

Question: Cc1cccc(-n2cc(-c3ccc([N+](=O)[O-])cc3)[nH]c2=S)c1 was tested. Which z-score did it give?
Answer: The z-score was 0.401.

Question: With COCC(C)n1c(C)cc(C(=O)COC(=O)c2ccc3ncsc3c2)c1C (stereo unspecified) as the molecule, how does the z-score read?
Answer: The z-score was 0.781.

Question: Which z-score does the source give for Cc1cccc(C)c1NC(=O)CN1CCNCC1 here?
Answer: Its z-score is -0.129.

Question: Which z-score does the source give for CCCN1C(=O)SC(CC(=O)Nc2ccc(C)cc2)C1=O (stereo unspecified) here?
Answer: The z-score was -0.133.

Question: For Cc1oc2nc(SCC(=O)NCc3cccnc3)nc(N)c2c1C, which z-score is on record?
Answer: Its z-score is -0.19.

Question: With CC1=C(C(=O)Nc2ccccc2F)C(c2ccsc2)C2=C(CC(c3ccccc3)CC2=O)N1 (stereo unspecified) as the molecule, how does the z-score read?
Answer: The z-score was -0.668.

Question: Which z-score does the source give for Cc1ccccc1C(=O)NCCN=C1NS(=O)(=O)c2ccccc21 here?
Answer: Its z-score is 0.074.

Question: For Cc1cc(NC(=O)c2cccc(S(=O)(=O)N3CCOCC3)c2)no1, which z-score is on record?
Answer: The z-score was 0.48.

Question: For CCOC(=O)/C(=C\c1ccccc1)C(=O)c1cc(C(C)=O)c(Nc2ccccc2)s1, which z-score is on record?
Answer: Its z-score is 0.101.

Question: With CCn1c(CNC(=O)c2cccc(C)c2)nnc1SCC(=O)Nc1cccc(OC)c1 as the molecule, how does the z-score read?
Answer: The z-score was -0.317.

Question: CCOc1ccc(OCCOc2cccc(C(F)(F)F)c2)cc1 was tested. Which z-score did it give?
Answer: Its z-score is 0.0766.

Question: With CCOP(=O)(c1ccc(N(C)C)cc1)C(O)c1ccccc1 (stereo unspecified) as the molecule, how does the z-score read?
Answer: The z-score was -0.244.

Question: With CCOC(=O)C1=C(C)N=C2c3ccccc3C(=O)C2C1c1ccc(C)cc1 (stereo unspecified) as the molecule, how does the z-score read?
Answer: Its z-score is -0.307.

Question: Which z-score does the source give for COc1ccc(-n2nnnc2SCC(=O)Nc2ccccc2)cc1 here?
Answer: Its z-score is 0.0622.

Question: Which z-score does the source give for COC(=O)C1=C(C)NC(=O)/C1=C\c1cccs1 here?
Answer: Its z-score is -0.512.

Question: For COc1ccc(NC(=O)C2CCCN(S(=O)(=O)c3cccc4cccnc34)C2)cc1 (stereo unspecified), which z-score is on record?
Answer: Its z-score is 0.0102.

Question: O=C(NCc1cccs1)C1CC(=O)N(c2ccccc2)C1 (stereo unspecified) was tested. Which z-score did it give?
Answer: Its z-score is -0.0578.

Question: With CC1(C)CC(=O)c2cnc(NCC3CCCO3)nc2C1 (stereo unspecified) as the molecule, how does the z-score read?
Answer: The z-score was 0.214.

Question: With O=C(CN1CCN(c2nc(-c3ccc(F)cc3)cs2)CC1)NCc1ccc2c(c1)OCO2 as the molecule, how does the z-score read?
Answer: The z-score was 0.0308.

Question: For COCCOC(=O)c1[nH]c2c(c1C)C(=O)CC(c1ccc(N(C)C)cc1)C2 (stereo unspecified), which z-score is on record?
Answer: Its z-score is 0.0502.

Question: COc1ccc(N2C(=O)CCC(C(=O)N3CCCCCC3)C2c2ccc(OC)c(OC)c2)cc1 (stereo unspecified) was tested. Which z-score did it give?
Answer: The z-score was 0.685.

Question: With CCOC(=O)c1cccnc1SCc1cc(=O)n2ccccc2n1 as the molecule, how does the z-score read?
Answer: The z-score was -0.211.

Question: How did the z-score turn out when CC(C)N1C(=O)CC(Nc2ccc(N3CCOCC3)cc2)C1=O (stereo unspecified) was run?
Answer: Its z-score is 0.261.

Question: Which z-score does the source give for COc1ccc(OC)c(/C=C(\NC(=O)c2ccccc2)C(=O)N/N=C/c2ccc(C)s2)c1 here?
Answer: The z-score was -0.239.

Question: How did the z-score turn out when Cc1cccc(C(=O)NCCc2csc(C)n2)c1 was run?
Answer: Its z-score is -0.0815.

Question: O=C(NCc1ccccc1F)c1ccc2c(c1)OCO2 was tested. Which z-score did it give?
Answer: The z-score was 0.15.

Question: How did the z-score turn out when COc1ccc(S(=O)(=O)N(CC(=O)N2CCOCC2)Cc2ccccc2)cc1C was run?
Answer: The z-score was -0.504.

Question: For COc1cccc(C2CC(c3ccccc3)n3ncnc3N2)c1 (stereo unspecified), which z-score is on record?
Answer: Its z-score is 0.237.

Question: Which z-score does the source give for COCCN(CC(=O)NCC1CCCO1)C(=O)CCC(=O)Nc1cc(C)ccn1 (stereo unspecified) here?
Answer: Its z-score is 0.675.

Question: O=C(COC(=O)c1ccccc1)Nc1ccccc1N1CCOCC1 was tested. Which z-score did it give?
Answer: The z-score was 0.114.

Question: O=C(COC(=O)Cc1ccsc1)NC1CCCCCC1 was tested. Which z-score did it give?
Answer: Its z-score is 0.353.

Question: Which z-score does the source give for CC(=O)c1nn(-c2cccc(Br)c2)cc1C(=O)c1ccccc1 here?
Answer: The z-score was -0.259.

Question: With COc1ccccc1C1=NN(C(=S)Nc2ccccc2)C(c2ccco2)C1 (stereo unspecified) as the molecule, how does the z-score read?
Answer: The z-score was -0.27.

Question: How did the z-score turn out when Cc1c(C(=O)NC2CCCc3ccccc32)oc2ccccc12 (stereo unspecified) was run?
Answer: The z-score was -0.0744.

Question: With O=C(Cc1cccs1)N/N=C/c1ccc(OCc2ccccc2)cc1 as the molecule, how does the z-score read?
Answer: Its z-score is 0.365.

Question: CCOc1ccccc1NC(=O)c1c(Br)cnn1C was tested. Which z-score did it give?
Answer: Its z-score is -0.0887.

Question: How did the z-score turn out when ON1C(c2ccc(Cl)cc2Cl)N(O)[C@H]2CCCC[C@H]21 (stereo partly specified) was run?
Answer: The z-score was 0.214.

Question: For O=C(/C=C/c1ccccc1)N/C(=C/c1ccccc1)C(=O)NCCO, which z-score is on record?
Answer: Its z-score is -0.124.

Question: How did the z-score turn out when CCc1nc(SCC(=O)N2CCN(c3ccccc3)CC2)c2oc3ccccc3c2n1 was run?
Answer: The z-score was -0.331.

Question: How did the z-score turn out when Nc1c(C(=O)Nc2ccc3c(c2)OCCO3)nnn1CCc1ccccc1 was run?
Answer: Its z-score is -0.72.

Question: With Cc1[nH]c2ccc3ncccc3c2c1C as the molecule, how does the z-score read?
Answer: Its z-score is 0.0252.

Question: With O=C(Cc1ccccc1)NC(Nc1ccccc1)C(Cl)(Cl)Cl (stereo unspecified) as the molecule, how does the z-score read?
Answer: The z-score was -0.189.

Question: For O=C(Cn1c(NCCO)nc2ccccc21)c1ccco1, which z-score is on record?
Answer: The z-score was -0.133.

Question: Cc1cccc(C)c1NC(=O)C1C2C=CC(C2)C1C(=O)NCc1ccccn1 (stereo unspecified) was tested. Which z-score did it give?
Answer: Its z-score is -0.206.

Question: COc1ccc(OC)c(C2C3=C(CCCC3=O)Nc3nnnn32)c1 (stereo unspecified) was tested. Which z-score did it give?
Answer: Its z-score is -0.152.

Question: With NC(=O)c1c(NC(=O)CN2CCOCC2)sc2c1CCC2 as the molecule, how does the z-score read?
Answer: The z-score was 0.0462.

Question: For C/C(=C\C(=O)c1ccccc1)Nc1ccc(Cl)c(Br)c1, which z-score is on record?
Answer: Its z-score is -0.178.

Question: With CCC(C)Nc1nc2c(c(=O)[nH]c(=O)n2C)n1CCC(C)C (stereo unspecified) as the molecule, how does the z-score read?
Answer: Its z-score is -0.271.

Question: How did the z-score turn out when O=C(C1CCC1)N1CCc2cc(S(=O)(=O)NCc3ccccn3)ccc21 was run?
Answer: Its z-score is 0.3.

Question: CN1CCN(C=NC2=NN(c3cccc(C(F)(F)F)c3)CC2)CC1 was tested. Which z-score did it give?
Answer: Its z-score is -0.275.

Question: For CC(=O)c1cc2c(cc1NC(=O)C1CC1)OCO2, which z-score is on record?
Answer: The z-score was 1.2.

Question: CC(NS(C)(=O)=O)C(c1cccs1)N1CCN(c2ccccc2)CC1 (stereo unspecified) was tested. Which z-score did it give?
Answer: Its z-score is -0.211.

Question: With Cc1c(C)c2cc(Cl)c(O)c(CN3CCCC(C)C3)c2oc1=O (stereo unspecified) as the molecule, how does the z-score read?
Answer: The z-score was -0.783.

Question: For CCN(CC)S(=O)(=O)c1ccc(O)c(C(=O)OCC(=O)N(C)Cc2ccccc2)c1, which z-score is on record?
Answer: The z-score was 0.101.

Question: Which z-score does the source give for COc1ccc(C(=O)Nc2ccccc2C(=O)NC(Cc2ccc(O)cc2)C(=O)NNC(=O)c2ccccc2)cc1 (stereo unspecified) here?
Answer: Its z-score is -0.0526.

Question: COc1ccc(Cn2c(O)cc(=O)[nH]c2=O)cc1 was tested. Which z-score did it give?
Answer: The z-score was 0.277.

Question: How did the z-score turn out when N#CCN1CCN(CCC(=O)Nc2ccc(OCc3ccccc3)cc2)CC1 was run?
Answer: The z-score was 0.324.

Question: Which z-score does the source give for Cc1[nH]ccc(=O)c1OCc1ccc(Cl)cc1 here?
Answer: Its z-score is -0.133.

Question: How did the z-score turn out when CC(=O)N/C(=C\c1ccccc1)C(=O)OCC(=O)N1CCCCCC1 was run?
Answer: Its z-score is 0.062.

Question: Which z-score does the source give for O=S(=O)(Nc1ccc(N2CCOCC2)cc1)c1ccc2ccccc2c1 here?
Answer: Its z-score is 0.236.

Question: With O=C(Nc1cccc2ccccc12)/C(=C/c1ccc([N+](=O)[O-])cc1)NC(=O)c1ccccc1 as the molecule, how does the z-score read?
Answer: The z-score was 0.106.
